PubChem BioAssay (NCI)
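Cultured in 96-well plates, cells were exposed to test compound for 48 hours across five concentrations. At the GI50, growth is halved. Definition used: TGI = concentration required for complete inhibition of growth.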

system: NCI-H322M lung; assay: NCI tumour cell line growth inhibition, 48 h

Q: For CN(C)c1ccc(/C=C/C=C(/C#N)c2ccccc2)cc1, which TGI is on record?
A: Its TGI is greater than 100 µM.

Q: What does the source list for CC(=O)O[C@@H]1CC2C(C)(C)CCCC2(C)C2=C1C(=O)C(C(C)C)=CC2=O (stereo not given in full)?
A: GI50: 0.529 µM; TGI: 2.21 µM

Q: Which TGI does the source give for CC[C@@H](/C=C\CCC1(C[C@H](O)CCC=C(C)C)OCCO1)O[Si](C(C)C)(C(C)C)C(C)C here?
A: Its TGI is greater than 100 µM.

Q: COc1cc(-c2cn(-c3ccc(Cl)cc3)c(C)c2C(=O)C(F)(F)F)cc(OC)c1OC was tested. Which GI50 did it give?
A: The GI50 was greater than 100 µM.

Q: What about the TGI of the same compound?
A: The TGI was greater than 100 µM.

Q: CCC(=O)O[C@H]1CC[C@H]2[C@@H]3CCC4=C/C(=N/NC(=O)c5cccc6c(=O)c7ccccc7[nH]c56)CC[C@]4(C)[C@H]3CC[C@]12C was tested. Which TGI did it give?
A: Its TGI is greater than 25 µM.

Q: Which results are given for ClCc1c(Cl)c(Cl)c(Cl)c(CCl)c1Cl?
A: GI50: 1.74 µM; TGI: 3.66 µM

Q: How did the TGI turn out when O=c1cc(-c2ccccc2)c2cc3c(=O)ccoc3cc2o1 was run?
A: Its TGI is greater than 100 µM.

Q: How did the TGI turn out when C=C(C)C(=O)O[C@H]1[C@H]2[C@H](OC(=O)[C@H]2C)[C@H](O)[C@@H](C)[C@@H]2C=CC(=O)[C@]21C was run?
A: Its TGI is 8.94 µM.

Q: For Cc1cccc(NC(=S)N=Nc2c(O)[nH]c3ccccc23)c1, which TGI is on record?
A: Its TGI is greater than 100 µM.

Q: With CC(=O)OC1c2ccccc2CCCCCCC12OCCO2 (stereo not given) as the compound, how does the TGI read?
A: The TGI was greater than 100 µM.

Q: Which TGI does the source give for CC12CCC(=O)C=C1CCC1C2C(O)CC2(C)C(c3csc(N)n3)CCC12 (stereo not given) here?
A: Its TGI is greater than 100 µM.

Q: With NCc1ccccc1C1CSCSC1 as the compound, how does the TGI read?
A: The TGI was greater than 100 µM.

Q: With CCC12CCCC(=O)N1C(CO)C(c1ccccc1)O2 (stereo not given) as the compound, how does the TGI read?
A: Its TGI is greater than 100 µM.

Q: OC1COC(n2c3ccc(Br)cc3c3ccc4c5ccccc5[nH]c4c32)C(O)C1O (stereo not given) was tested. Which TGI did it give?
A: Its TGI is 16 µM.

Q: How did the TGI turn out when CC[n+]1c(/C=C/c2ccc(N(CCCl)CCCl)cc2)ccc2cc(NC(=O)/C=C/c3ccccc3)ccc21 was run?
A: The TGI was 4.29 µM.

Q: With CC(=O)[O-].CC(=O)[O-].[NH2-].[Pt+2].c1ccc2cnccc2c1 as the compound, how does the GI50 read?
A: Its GI50 is greater than 100 µM.

Q: What about the TGI of the same compound?
A: The TGI was greater than 100 µM.

Q: How did the TGI turn out when COC(=O)c1c(C)cccc1CC1Cc2c(C)cccc2C1=O (stereo not given) was run?
A: The TGI was greater than 100 µM.

Q: For CCC(CC)n1c(C)nc2c1C(=O)c1ccccc1C2=O, which TGI is on record?
A: The TGI was greater than 100 µM.

Q: With COc1ccc(-c2cncn2-c2ccc(OC)cc2)cc1 as the compound, how does the GI50 read?
A: Its GI50 is 20.5 µM.

Q: What about the TGI of the same compound?
A: Its TGI is 66.3 µM.

Q: How did the TGI turn out when COC(=O)/C=c1/c2ccccc2n2nc3ccccc3c12 was run?
A: The TGI was greater than 100 µM.

Q: How did the TGI turn out when CCOC(=O)/C=C(\C)c1ccc(OC)cc1 was run?
A: The TGI was greater than 100 µM.

Q: c1cc2c(c(-c3c4ccccc4nc4ccccc34)c1)CC1(CC2)OCCO1 was tested. Which TGI did it give?
A: The TGI was greater than 100 µM.

Q: What does the source list for Fc1cccc(COc2ccc(Nc3ncnc4cc(-c5ccc[nH]5)sc34)cc2Cl)c1?
A: GI50: 0.809 µM; TGI: > 25 µM

Q: Which TGI does the source give for CC(C)NC(=O)OCCS(=O)c1c(Cl)c(Cl)nn1C (stereo not given) here?
A: Its TGI is greater than 100 µM.

Q: How did the TGI turn out when C(=C\C(SCc1ccccc1)SCc1ccccc1)/c1ccccc1 was run?
A: The TGI was greater than 10 µM.

Q: O=c1[nH]nc(Cc2ccccc2)n1Nc1ccccc1 was tested. Which TGI did it give?
A: The TGI was greater than 100 µM.

Q: NC(=O)N1N=C2c3ccccc3SC[C@H]2[C@@H]1c1ccccc1 was tested. Which TGI did it give?
A: Its TGI is greater than 100 µM.

Q: Cc1cc(=O)oc2cc3c(cc12)Oc1ccccc1O3 was tested. Which TGI did it give?
A: Its TGI is greater than 100 µM.

Q: How did the TGI turn out when CC(C)C1OC(=O)/C=C/C=C/C=C/C=C/C=C/CC(O)CC(O)CC(O)CC(O)CC(O)CC(O)CC(O)CC(O)/C=C/C1C (stereo not given) was run?
A: Its TGI is greater than 100 µM.

Q: CCCCCCCCCCCCCCCCCCCCCC(=O)Nc1ccn(C2OC(CO)C(O)C2O)c(=O)n1 (stereo not given) was tested. Which TGI did it give?
A: The TGI was greater than 100 µM.

Q: CCOC(=O)CCC(NC(=O)c1ccc(N2CCN(c3c(C)nc(N)nc3N)CC2)cc1)C(=O)OCC (stereo not given) was tested. Which TGI did it give?
A: Its TGI is greater than 100 µM.

Q: N[C@H](C(=O)O)[C@H](Cl)CC(=O)O was tested. Which TGI did it give?
A: The TGI was greater than 100 µM.

Q: With C[C@H]1[C@H](C)CC[C@]2(C(=O)O)CC[C@]3(C)C(=CC[C@@H]4[C@@]5(C)C/C(=C/c6cccnc6)[C@H](O)C(C)(C)[C@@H]5CC[C@]43C)[C@H]12 as the compound, how does the GI50 read?
A: The GI50 was 16.2 µM.

Q: What about the TGI of the same compound?
A: Its TGI is 69.3 µM.

Q: CN(C)C(=S)N=Nc1c(O)[nH]c2ccccc12 was tested. Which GI50 did it give?
A: Its GI50 is 0.726 µM.

Q: And the TGI?
A: The TGI was 23.5 µM.

Q: With O=C(O)c1cc(=O)c2[nH]c3ccccc3c2s1 as the compound, how does the TGI read?
A: The TGI was greater than 100 µM.

Q: How did the TGI turn out when CSc1ccc(/C=C2\N=C(c3ccccc3)N(c3nc4ccc(Sc5ccccc5)cc4[nH]3)C2=O)cc1 was run?
A: Its TGI is greater than 96.4 µM.

Q: For COc1ccc2c(c1)OC(N(C(C)=O)C(C)=O)=C(C#N)C2c1ccc(F)cc1 (stereo not given), which GI50 is on record?
A: The GI50 was 6.26 µM.

Q: What about the TGI of the same compound?
A: Its TGI is greater than 100 µM.

Q: Which TGI does the source give for COc1cccc(C2c3cc4c(cc3OC(O)(CO)C2C(=O)O)OCO4)c1 (stereo not given) (tested in a mixture with another compound) here?
A: Its TGI is greater than 100 µM.

Q: With Nc1nc(Cl)cc(Nc2cc(Cl)cc(Cl)c2)n1 as the compound, how does the TGI read?
A: Its TGI is 35.9 µM.

Q: CC(C)C[P+](c1ccccc1)(c1ccccc1)c1ccccc1 was tested. Which TGI did it give?
A: Its TGI is 89.9 µM.

Q: Which results are given for CC[C@H](CC#N)OC(=O)N[C@@H](C)c1cccc(NC(=O)Nc2ccc(-c3cnco3)c(OC)c2)c1?
A: GI50: 0.098 µM; TGI: 46.6 µM

Q: C#CC[C@@H]1C[C@]2(C)[C@H]3CC=C4[C@H]5CC(C)(C)CC[C@]5(C(=O)NCCCCN)CC[C@@]4(C)[C@]3(C)CC[C@H]2C(C)(C)[C@H]1OC(C)=O was tested. Which GI50 did it give?
A: Its GI50 is 1.63 µM.

Q: And the TGI?
A: The TGI was 2.99 µM.

Q: Which TGI does the source give for CC1=C(O)C(=O)C2C(=O)C1C(C)C2c1ccc(Cl)cc1 (stereo not given) here?
A: Its TGI is greater than 100 µM.

Q: For c1ccc(-c2nn(-c3ccccc3)[n+](-c3ccccc3)n2)cc1, which TGI is on record?
A: The TGI was greater than 74.7 µM.

Q: Which TGI does the source give for O=C(CN1CCN(c2ccccc2)CC1)N1CCc2c([nH]c3ccccc23)C1c1cccnc1 (stereo not given) here?
A: Its TGI is greater than 100 µM.

Q: How did the TGI turn out when CC(C)(Br)C1(O)CCCN1C(=O)c1ccccc1 (stereo not given) was run?
A: Its TGI is greater than 100 µM.

Q: NNC(=O)CCC(=O)NC1C2CC3CC(C2)CC1C3 (stereo not given) was tested. Which TGI did it give?
A: The TGI was greater than 100 µM.

Q: With CN=S(=O)(c1ccccc1)c1ccccc1 as the compound, how does the TGI read?
A: The TGI was greater than 100 µM.

Q: With Cc1ccc(Nc2cc(=O)[nH]c(=S)[nH]2)cc1 as the compound, how does the TGI read?
A: The TGI was greater than 100 µM.
